Measurements taken from PubChem BioAssay AID1346428 (National Center for Advancing Translational Sciences (NCATS), 2018).
About 1,200 (2.5%) of roughly 48,000 compounds were called active. Roughly 2% stayed inconclusive and do not appear here.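 How the source made its calls: active means activation of at least 60% and not above a set upper limit (about 1 call in 100 departs from these limits); inconclusive means activation of 40% to 60%, or above that upper limit; inactive means activation under 40%.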 The list shows a part of the results.

Target: Probable G-protein coupled receptor 32 (Homo sapiens) (UniProt O75388)
Test: qHTS for Agonists of Human Resolvin D1 Receptor DRV1; further: 0% is about no effect
Details: CHO-K1 GPR32 beta-arrestin PathHunter luminescence, 90 min; at 76.9 µM; active compounds read high; zero percent set by DMSO-only wells
Summary of the method: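 Using DMSO wells as EC0, agonist-induced signal was taken as chemiluminescence from beta-Gal reconstituted upon beta-arrestin recruitment to GPR32 in CHO-K1 cells after 90 min compound treatment.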

Chain of UniProt O75388 (O75388 whole entry, looked up): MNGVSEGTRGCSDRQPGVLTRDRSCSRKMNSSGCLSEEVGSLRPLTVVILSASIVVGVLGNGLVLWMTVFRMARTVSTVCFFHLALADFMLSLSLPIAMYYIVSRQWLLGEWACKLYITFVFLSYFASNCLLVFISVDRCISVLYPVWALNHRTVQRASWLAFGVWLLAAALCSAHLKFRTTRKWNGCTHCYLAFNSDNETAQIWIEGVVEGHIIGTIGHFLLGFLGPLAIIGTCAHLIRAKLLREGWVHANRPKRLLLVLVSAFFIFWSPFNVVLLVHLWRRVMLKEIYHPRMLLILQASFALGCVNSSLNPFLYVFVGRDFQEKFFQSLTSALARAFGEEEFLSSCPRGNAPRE

Compound | activation
CCOC(=O)c1c(S(=O)(=O)NCC(=O)Nc2ccc(C)c(Cl)c2)c(C)n(C)c1C | inactive: -10.8%
CSc1ncc(C(=O)NCc2ccccc2)c(-c2ccccc2)n1 | inactive: -16.8%
CC(C)Oc1ccc(CNC(=O)c2ccc(NC(=O)N3CCSc4ncccc43)cc2)cc1 | inactive: 1.81%
COc1ccc(NC(=O)C2CCCN2S(=O)(=O)c2cccc3cccnc23)cc1OC (stereo not drawn) | inactive: -8%
CC(C)(C)n1cnc2cc(NCc3ccccc3Cl)ccc21 | inactive: -74%
COc1ccc(C2=NS(=O)(=O)N(C)C(C(=O)NCc3ccccc3)=C2)cc1OC | inactive: -15.8%
COc1ccc(-c2cc(C(=O)Nc3ccn(Cc4ccc(C)cc4)n3)no2)cc1OC | active: 77.7%
CCc1ccc(NC(=O)C(=O)NCC(c2ccc3c(c2)OCO3)N2CCOCC2)cc1 (stereo not drawn) | inactive: -1.79%
Cc1ccc(S(=O)(=O)c2nc(-c3ccccc3Cl)oc2N2CCCCCC2)cc1 | inactive: -4.36%
Cc1ccc(Cl)c(NC(=O)Nc2csc3c2CCCC3)c1 | inactive: -5.95%
CCS(=O)(=O)N1CCC(n2c(C)nc3cccnc32)CC1 | inactive: -0.136%
Cc1ncc([N+](=O)[O-])n1CC(O)CCl (stereo not drawn) | inactive: -2.73%
CN1C(=O)c2ccccc2Sc2ccc(NC(=O)COc3ccccc3)cc21 | inactive: -8.63%
COc1cc2oc(=O)c(CC(=O)N3CCCCC3)c(C)c2cc1OC | inactive: 15.6%
CCOC(=O)c1nc(N2CCN(c3ccc(F)cc3)CC2)c2c(C)noc2n1 | inactive: -12.3%
CCCC(=O)N(c1ccc2oc(C)c(C(C)=O)c2c1)S(=O)(=O)c1ccc(C)cc1 | inactive: -3.81%
COc1ccc(C(=O)/C=C/c2cn(CC(O)CN(CC(C)C)CC(C)C)c3ccccc23)cc1 (stereo not drawn) | inactive: -3.48%
CCn1c(=O)n(-c2ccc(F)c(Cl)c2)c(=O)c2c3c(sc21)CN(C(C)=O)CC3 | inactive: -5.62%
Cc1ccc(C)c(CSc2cn(CC(=O)N3CCCCCC3)c3ccccc23)c1 | inactive: -8.88%
COc1cccc(N2C(=O)CSC23C(=O)N(Cc2ccccc2)c2ccccc23)c1 (stereo not drawn) | inactive: -31.7%
COCCNC(=O)c1ccc(-n2c(-c3ccccc3)cc3c2CCCCC3)cc1 | inactive: -14.3%

Compound | activation
COc1ccc(NC(=O)CCCc2nnc3n(CCC(C)C)c(=O)c4sccc4n23)c(OC)c1 | inactive: -1.33%
COc1ccc(-c2csc3nc(-c4ccc(F)cc4)oc(=O)c23)cc1 | inactive: -18.4%
Cc1ccc2oc(=O)c3cnn(CC(=O)N4CCN(c5cc(Cl)ccc5C)CC4)c3c2c1 | inactive: -5.82%
COc1ccc(CCNC(=O)Cn2c(=O)n(-c3cc(OC)c(OC)c(OC)c3)c(=O)c3ccccc32)cc1OC | inactive: -7.71%
COc1cccc(CNc2nc3c(-c4ccccc4)nnn3c3ccccc23)c1 | inactive: 8.33%
CCOc1ccc(NC(=O)c2cc(S(=O)(=O)N3CCCCC3)c[nH]2)cc1 | inactive: 10.8%
CN1C(C(=O)Nc2ccccn2)=C(O)c2sccc2S1(=O)=O | inactive: -50.3%
CC(CSC(=O)c1ccccc1)C(=O)N1C[C@@H](Sc2ccccc2)C[C@H]1C(=O)O (stereo partly drawn) | inactive: -39.7%
CN(Cc1ccccc1)C(=O)CSc1nc2ccsc2c(=O)n1-c1ccc(F)cc1 | inactive: -22.7%
CCOc1ccc(CCNCc2c(C(=O)O)n(Cc3ccc(C)cc3)c3cc(OC)ccc23)cc1 | inactive: 6.5%
COc1cccc(NS(=O)(=O)c2ccc3[nH]cc(C(=O)NCCc4ccccc4)c(=O)c3c2)c1 | inactive: 11.6%
COc1cccc(N2C(=O)N(Cc3ccc(C#N)cc3)c3ccccc3S2(=O)=O)c1 | inactive: -0.327%
COc1ccc(NC(=O)CCc2nnc3n(C)c(=O)c4sccc4n23)cc1Cl | inactive: 12.8%
CCn1cc(C(=O)NCCCN(CC(C)C)CC(C)C)c(=O)c2cc(S(=O)(=O)N(C)C3CCCCC3)ccc21 | inactive: -30.5%
O=S(=O)(c1ccccc1F)N1CCC(Oc2ccc(-n3cnnn3)cc2)CC1 | inactive: 18.3%
CCc1ccccc1NC(=O)Cn1c(=O)n(CC2CCC(C(=O)NCCc3ccccc3)CC2)c(=O)c2ccccc21 (stereo not drawn) | inactive: -6.85%
O=C(NCc1ccccc1Cl)c1cnc2sc(N3CCOCC3)nn2c1=O | inactive: -6.09%
CCC(=O)N1CCc2cc(Br)cc(S(=O)(=O)CCC(=O)Nc3ccc(C)c(C)c3)c21 | inactive: -11.5%
COc1ccc(-c2noc(-c3ccc(NCc4cccnc4)c([N+](=O)[O-])c3)n2)cc1 | inactive: 1.75%
O=C(COCc1cc(-c2cccs2)on1)Nc1cccc(Cl)c1Cl | inactive: -12.5%
Cc1c(Cl)cccc1Nc1nn2c(=O)c3ccc(C(=O)NCCc4ccccc4)cc3nc2s1 | inactive: 3.6%

Compound | activation
CCN(c1cccc(C)c1)S(=O)(=O)c1ccc2c(c1)NC(=O)CCS2 | inactive: -2.43%
COc1ccc(NC(=O)CN2C(=O)COc3ccc(S(=O)(=O)Nc4ccccc4)cc32)cc1OC | inactive: -17.2%
CCOc1ccc(NC(=O)c2cc3c(n(-c4ccc(OC)cc4)c2=O)CC(C)(C)CC3=O)cc1 | inactive: -5.87%
CC(=O)c1cccc(NC(=O)c2cccn2-c2nnc(N3CCCCC3)s2)c1 | inactive: -3.6%
COc1ccccc1Cn1c(CNS(=O)(=O)c2ccccc2Cl)nc2cccnc21 | inactive: -28.6%
CCN(CC)CCOC(=O)C1(c2ccccc2)CCCC1 | inactive: 0.25%
COc1cccc(CNC(=O)C2CCN(c3nn4c(=O)cc(C)nc4s3)CC2)c1 | inactive: 14%
O=C(NC1CC(=O)N(c2ccccc2)C1)c1ccc(Br)o1 (stereo not drawn) | inactive: -3.49%
O=C(NCCCN1CCN(c2cccc(Cl)c2)CC1)Nc1ccccc1C(F)(F)F | inactive: 10.5%
CCOC(=O)Cn1c(=O)oc2cc(S(=O)(=O)N3CCN(c4ccccc4F)CC3)ccc21 | inactive: 1.04%
CCN(CC)C(=O)Cn1cc(SCC(=O)Nc2ccccc2F)c2ccccc21 | inactive: -13.8%
COc1ccc(NC(=O)c2nnn(Cc3nc(-c4cc(OC)c(OC)c(OC)c4)oc3C)c2C)cc1 | inactive: 3.08%
CCOC(=O)c1ccc2c(c1)N(CC(=O)Nc1ccc(C)cc1C)C(=O)c1ccccc1S2 | inactive: -3.45%
COc1ccc(-c2nc(C(N)=O)c3c(n2)n(-c2ccccc2OC)c(=O)n3C)c(OC)c1 | inactive: -6.38%
O=C(c1ccc2c(c1)N(Cc1ccc(Cl)cc1)C(=O)c1ccccc1S2=O)N1CCN(c2ccccc2F)CC1 (stereo not drawn) | inactive: 27.4%
CCOc1ccccc1NC(=O)C(NS(=O)(=O)c1ccc2c(c1)CCC(=O)N2)c1ccccc1 (stereo not drawn) | inactive: -10.3%
O=C(NC1CCCCCC1)c1cc2c(Cl)nc3ccccc3c2s1 | inactive: -0.412%
CC(C)NC(=O)CC(=O)Nc1ccc2nc3n(c(=O)c2c1)CCCCC3 | inactive: 9.95%
N=C(N)N | inactive: -8.89%
O=C(c1ccc(F)cc1)N1CCC(c2nc3ccccc3o2)CC1 | inactive: 4.12%
CSc1cccc(NC(=O)C2CCN(c3ncnc4c3nc3n4CCCCC3)CC2)c1 | inactive: -12%

Compound | activation
O=C(CCC(=O)N1CC2CCCN2c2ccccc21)NCc1ccccc1 (stereo not drawn) | inactive: -28.3%
COc1ccc(CNC(=O)c2ccc3c(c2)N(C)C(=O)C2CCCCN32)cc1OC (stereo not drawn) | inactive: 13.7%
CC(C)(C)c1ccc(Oc2nc3ccccn3c(=O)c2/C=C(\C#N)c2nc3ccccc3[nH]2)cc1 | inactive: 7.97%
CCOc1ccc(CC(=O)NCCc2csc(-c3ccc(C(F)(F)F)cc3)n2)cc1 | inactive: 3.37%
Cc1nn(C(=O)COc2ccccc2)c(C)c1Sc1ccccc1 | inactive: -13.6%
CCOC(=O)c1ccc(NC(=O)C2=C(C)Nc3nc(SCc4ccc(Cl)cc4)nn3C2c2ccc(C)cc2)cc1 (stereo not drawn) | inactive: 12.1%
CCCCOc1ccc(C(=O)N2CCC(c3nc4ccccc4o3)CC2)cc1 | inactive: -11.1%
CCc1ccccc1NC(=O)Cn1nnc(-c2nc(-c3ccc(C)cc3)no2)c1N | inactive: -4.62%
Cc1ccc2c(c1)sc1nc(-c3cc4ccccc4oc3=O)cn12 | inactive: -3.58%
CCOC(=O)c1ccccc1NC(=O)CN1C(=O)CC(c2ccco2)Sc2ccccc21 (stereo not drawn) | inactive: 41.9%
Cc1ccc(C(=O)Nc2ccc(C(=O)OCc3cc(=O)n4nc(C5CC5)sc4n3)cc2)cc1 | inactive: 1.01%
Cc1oc(-c2ccc(Cl)cc2)nc1Cn1c(=O)cc(C)c2c(C)nn(-c3cccc(F)c3)c21 | inactive: -5%
COc1ccc(NC(=O)C(=O)NCC(c2ccc3c(c2)OCO3)N2CCN(C)CC2)cc1 (stereo not drawn) | inactive: -6.7%
COc1ccc(N2CCN(c3c4c(nc5nncn35)CCC4)CC2)cc1 | inactive: 25.3%
CCn1cc(C(=O)N2CCN(c3ccc(F)cc3)CC2)c(=O)c2cc(S(=O)(=O)N3CCOCC3)ccc21 | inactive: -1.99%
COc1ccc(CCNC(=O)c2cc(Nc3cc(C)cc(C)c3)nc3ccccc23)cc1OC | inactive: -5.33%
CCc1ccccc1NC(=O)CSc1ncc(S(=O)(=O)c2ccccc2)c(N)n1 | inactive: 4.43%
CCOc1cc(CNC(=O)CCCn2c(=O)c3cccn3c3cccnc32)cc(OCC)c1OCC | inactive: -15.1%
CC(=O)Nc1cccc(NC(=O)CSc2cn(CC(=O)N(C(C)C)C(C)C)c3ccccc23)c1 | inactive: -16.5%
CC(=O)c1ccc(NS(=O)(=O)c2cc3[nH]c(=O)c(=O)[nH]c3cc2C)cc1 | inactive: -7.51%
